PubChem BioAssay AID1963576 (National Center for Advancing Translational Sciences (NCATS), 2024)
In all, about 46,000 compounds went through this assay and about 60 (0.1%) were called active. Inconclusive results (about 3%) are left out. The call rests on the fitted dose curve; in most records, active means well fitted inhibition curve with a large enough effect; inconclusive means small, poorly fitted or top-dose-only effect; inactive means no such curve, though single readings can be large or run the other way. This is one part of the list.

Test: Primary qHTS assay for Inhibitors of ovarian cancer metastasis using an organotypic tumor microenvironment (TME) model. Further: nearly all actives have a fitted effect of over 65% in size.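 On activity change, negative = inhibition: plate controls were DMSO wells for no effect and tomatine positive control wells for full effect.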
Conditions: SKOV3ip1-GFP adhesion/invasion on 3D omental model, fluorescence; series mostly up to 45.8 µM; activity change, negative = inhibition: at the top concentration
Outline: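 qHTS, 4-pt dose (0.36-46 umol/L); SKOV3ip1-GFP, 1,200 cells/well, no FBS; primary omental fibroblast/mesothelial co-culture 48 h pre-grown; 2 h RT + 16 h 37 C; PBS wash, 4% PFA; GFP count 488/509 nm.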

SMILES	outcome	activity change, negative = inhibition
COc1ccc(OCC(=O)NC2CC(=O)N(c3ccc4c(c3)OCCO4)C2)cc1 (configuration not stated)	inactive	
COc1ccc(-c2ccc(NS(=O)(=O)c3cccc(C)c3)cc2)nn1		inactive: -9.85%
CCOc1cccc(C2CC(=O)Nc3cc4c(cc32)OCCO4)c1 (configuration not stated)		inactive: -18.4%
CC1CCN(c2nc3c(S(=O)(=O)c4ccc(Cl)cc4)nnn3c3ccsc23)CC1	inactive	
Cc1cccc(NC(=O)CSc2nc(-c3ccccc3Cl)nc3c2Cc2c(CO)cnc(C)c2O3)c1C		inactive: 0.97%
COc1ccc(CCNc2nc3c(-c4cccc(F)c4)nnn3c3ccccc23)cc1OC		inactive: 2.4%
COc1ccc(-c2cc(C)no2)cc1S(=O)(=O)N1CCN(c2ccccc2F)CC1		inactive: -5.77%
CC(=O)N1c2ccccc2CC1C(=O)NCc1cccc(Cl)c1 (configuration not stated)		inactive: 6.48%
COc1cc2c(cc1OC)C(COc1ccc3c(C)cc(=O)oc3c1)N(C(=O)c1ccccc1F)CC2 (configuration not stated)		inactive: -0.48%
COc1cc2c(cc1OC)n(Cc1ccc([N+](=O)[O-])cc1)c(=O)n1nc(-c3ccccc3)nc21		inactive: 1.89%
Cc1ccccc1NC(=O)CSc1cn(CC(=O)N(C(C)C)C(C)C)c2ccccc12		inactive: 12.7%
COCCNC(=O)C1CCN(c2nc3ccccc3nc2C(F)(F)F)CC1	inactive	
CCc1ccccc1NC(=O)c1ccc(CN2C(=O)CCn3nc(C)cc32)cc1		inactive: -18%
CCc1ccc(NC(=O)Cn2c(=O)n(-c3ccc(OC)cc3)c(=O)c3ccc(C(=O)NCc4ccc(C)cc4)cc32)cc1		inactive: 1.33%
Cc1c(CCC(=O)N2CCCCC2)c(=O)oc2cc3occ(C(C)(C)C)c3cc12	inactive	
Cc1ccc2nc(NC(=O)CSc3ncc(C(=O)Nc4ccc(F)cc4)c(=O)n3C)sc2c1		inactive: 17.5%
CCn1cc(C(=O)N(C)c2ccc(C(C)C)cc2)c2cc(OC)c(OC)cc2c1=O		inactive: 2.77%
CCCN(CCC)CC(O)Cn1cc(/C=C/C(=O)c2ccc(Br)cc2)c2ccccc21 (configuration not stated)		inactive: -4.54%
Cc1ccc(CNC(=O)CCNS(=O)(=O)c2cccc3nsnc23)cc1		inactive: 3.37%
CCc1ccc(-n2nc(C)c3c(C)cc(=O)n(CC(=O)Nc4ccc(F)cc4C)c32)cc1		inactive: 0.854%
CCc1nn(CC(=O)NC(C)CCc2ccccc2)c(=O)c2cc3c(OC)cccc3n12 (configuration not stated)		inactive: 12.7%
CCOC(=O)c1noc2nc(C)n(Cc3cccc([N+](=O)[O-])c3)c(=O)c12		inactive: -12.1%
Cc1ccc(Cc2nc3ccccc3nc2SCC(=O)N2CCN(c3ccc(F)cc3)CC2)cc1		inactive: -3.96%
COCCn1cc(C(=O)NCCCOC(C)C)c2c3ccccc3n(C)c2c1=O		inactive: 0.987%

SMILES	outcome	activity change, negative = inhibition
COc1ccc(CNC(=O)Cc2ccc(NC(=O)N3CCSc4ncccc43)cc2)cc1		inactive: -3.12%
COc1ccccc1NC(=O)CSC1=Nc2ccccc2C2=NC(CC(=O)NCc3ccccc3)C(=O)N12 (configuration not stated)		inactive: -9.48%
Cn1c(=O)c2c(nc(N3CCOCC3)n2Cc2ccc(Br)cc2)n(C)c1=O		inactive: 83.4%
CCOc1ccc(NC(=O)C2CCCN(c3nnc(C)c4c(C)n(-c5ccccc5)nc34)C2)cc1 (configuration not stated)		inactive: -2.58%
CCOC(=O)Cn1c(=O)n(C2CCCCC2)c2nc(-c3ccc(C(C)C)cc3)nc(C(N)=O)c21		inactive: -8.01%
Cc1ccc2c(CN3CCN(C(=O)c4ccc(Br)cc4)CC3)cc(=O)oc2c1		inactive: 1.43%
Cc1ccc(S(=O)(=O)N2CCc3cc(C(=O)Nc4c(F)cccc4F)ccc32)cc1		inactive: 2.82%
CCC(C(=O)N1CCN(c2cc(C)ccc2C)CC1)n1nc(C)n2c(cc3occc32)c1=O (configuration not stated)		inactive: 81.1%
O=C(CSc1ccc(-c2ccccn2)nn1)Nc1ccc(F)cc1F		inactive: 5.75%
COc1ccc(NC(=O)C2CCN(c3ccc(Sc4ccc(C)cc4)nn3)CC2)c(OC)c1	inactive	
Cc1ccc(CN2CCN(C3CCNCC3)C(=O)C2=O)cc1		inactive: -10.2%
CC(=O)N1CCc2cc(S(=O)(=O)NC(Cc3ccccc3)C(=O)NCc3ccc(C)cc3)ccc21 (configuration not stated)		inactive: 3.88%
O=C(Nc1ccc(Br)cc1)c1ccc(F)c(S(=O)(=O)N2CCc3ccccc32)c1		inactive: -8.58%
O=C(NCc1cccs1)C1CCN(C(=O)N2CCOc3ccc(Cl)cc32)CC1	inactive	
CC(=O)N1CCc2cc(CNC(=O)c3ccccc3Br)ccc21		inactive: 6.8%
Cc1ccc(CN2CCN(C3CCN(C(=O)Nc4ccc(C)cc4Cl)CC3)C(=O)C2=O)cc1		inactive: 0.355%
CCCCNS(=O)(=O)c1ccc(C)c(-c2nnc3c4ccccc4c(C)nn23)c1		inactive: -5.13%
CNS(=O)(=O)c1cn(CC(=O)Nc2ccc(C(C)=O)cc2)cc1S(=O)(=O)NC		inactive: 4.52%
Nc1ccn(C[C@@H](CO)OCP(=O)(O)O)c(=O)n1		inactive: 6.19% [at 23.2 µM]
Cc1ccc(S(=O)(=O)C(CNC(=O)C(=O)NCc2ccccc2C)c2cccs2)cc1 (configuration not stated)		inactive: 4.95%
COc1ccc(CCNC(=O)C2CCN(S(=O)(=O)c3c(C)noc3/C=C/c3ccc(C)cc3)CC2)cc1OC	inactive	
CCOC(=O)c1ccc(NC(=O)CCn2ccc(C)n2)cc1		inactive: -3.86%
Cc1cc(C)c(Cn2c(C3CC(=O)N(c4ccc(F)cc4)C3)nc3ccccc32)c(C)c1 (configuration not stated)		inactive: -0.94%
